Among all 420,000 compounds or so, about 64,000 (15%) were called active. Inconclusive results, whose numbers are uncertain, are shown with a selection of clear calls. Calls follow the shape of the dose curve; as a rule, active = well fitted inhibition curve with a large enough effect; inconclusive = small, poorly fitted or top-dose-only effect; inactive = flat fitted curve, though single readings scatter. No potency is given beside an inconclusive call; the fits are too rough.
Assay: qHTS for Inhibitors of human tyrosyl-DNA phosphodiesterase 1 (TDP1): qHTS in cells in absence of CPT; also: nearly all actives have a fitted effect of over 55% in size
Settings: DT40 Tdp1-/- hTDP1 cells, no CPT, ATP luminescence, 48 h; activity change, negative = growth inhibition: at 46.2 µM (top of the series) unless noted
How it was run: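 Growth of hTDP1-complemented DT40 Tdp1-knockout cells is measured by ATP luminescence after at least 48 hr compound exposure at 37 °C, with DMSO substituting for the 20 nM CPT used in the parallel screen.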
% is scaled to controls: 0 for no effect and ±100 for the full control effect; potency is read from the fitted curve at half-maximal effect; tags tell the direction and shape of the fitted curve.

Structure (SMILES)	Potency	activity change, negative = growth inhibition
CCN(CC(=O)NCCc1ccc(S(N)(=O)=O)cc1)Cc1ccccc1	inactive	
COc1ccccc1CC(=O)Nc1ccc(S(=O)(=O)N2CCCCC2)cc1	inconclusive [inhibitor, single point]	
COc1ccccc1OCCn1c(=S)[nH]c2ccccc21	inconclusive [inhibitor, single point]	
CCN(C(=O)c1cc2cc3ccc(C)cc3nc2o1)c1ccc(OC)cc1	inconclusive [inhibitor, partial curve]	
Fc1ccc(Nc2nc3ccccc3c3nncn23)c(Cl)c1	inconclusive [inhibitor, single point]	
CCOc1ccccc1N1CCN(C(=O)c2cc3c(s2)CCC3)CC1	inconclusive [inhibitor, single point]	
CN(C)CCNC(=O)c1ccc(COCC(F)(F)F)cc1	inactive	
Cc1csc(NC(=O)c2cc3c(s2)CCCCC3)n1	active: 14.6 µM	
CC1=C(C(=O)N2CCCCCC2)CC(CC(=O)NC2CCCCC2)C(=O)N1CCC1=CCCCC1 (centres undefined)	inconclusive [inhibitor, full curve, poor fit]	
CSc1nsc(SCC(=O)Nc2ccc(C(C)=O)cc2)n1	inactive	
CCN(CC(=O)Nc1ccc(OC)cc1)C(=O)c1ccc(Cl)c(S(=O)(=O)N2CCCC2)c1	inconclusive [inhibitor, single point]	
COC(=O)Cn1c(=O)c2c(nc3n2CC(C)CN3c2ccc(C)c(C)c2)n(C)c1=O (centres undefined)	inconclusive [inhibitor, single point]	
COc1cc(C2NC(=O)NC(C)=C2C(=O)OCC2CCCCC2)ccc1O (centres undefined)	inconclusive [inhibitor, single point]	
CC(C)CSc1nnc(-c2ccccc2)c(-c2ccccc2)n1	inconclusive [inhibitor, single point]	
Cc1ccc(/C=C2/Sc3ccc(C(=O)NCCN4CCOCC4)cc3NC2=O)cc1	inconclusive [inhibitor, partial curve]	
COc1ccc(NC(=S)N2CCN(CCN=CC3=C(O)CC(c4ccccc4)CC3=O)CC2)cc1 (centres undefined)		inconclusive: -35.2% [inhibitor]
CC(C)Cn1c(N)c(C(=O)COC(=O)c2cnc(Cl)c(Cl)c2)c(=O)n(C)c1=O	inconclusive [inhibitor, partial curve, poor fit]	
CCOC(=O)c1ccc(-n2ccnc2)c(NC(=O)c2ccc(Cl)cc2)c1	inactive	
COc1ccc2ccccc2c1C1NC(=O)NC(C)=C1[N+](=O)[O-] (centres undefined)	inactive	

From PubChem BioAssay AID686978 (National Center for Advancing Translational Sciences (NCATS), 2013)
